# Assay results taken from PubChem BioAssay AID463173 (ICCB-Longwood Screening Facility, Harvard Medical School, 2010).
# Screen size: about 52,000 compounds; about 1,700 (3.3%) were called active. No stated cut-off is given here; in the data, active means survival mostly below about 52% (no sharp cut-off); inactive means mostly above about 56%. The list shows a part of the results.
# Tested on: Wild type
# Experiment: S. aureus survival, RN4220 and DeltatarO strains – OD600, teichoic acid synthesis inhibitors, primary screen (AID 463173)
# Conditions: S. aureus RN4220 wild type/DeltatarO growth, OD600, 18 h, stronger effect = lower value, screened at 18.75 µg/mL (by protocol)
row,Compound,survival
1,Cc1ccc(NC(=O)CSc2nc3ccccc3n2CC(=O)N2CCC(C)CC2)cc1C,active: -1%
2,CCC(=O)Oc1cc(C(C)(C)C)cc2cc(-c3nc(-c4ccc(OC)cc4OC)no3)c(=O)oc12,inactive: 106%
3,CCOc1ccc(N(CC(=O)Nc2cc(OC)cc(OC)c2)S(=O)(=O)c2c(C)[nH]c(=O)[nH]c2=O)cc1,inactive: 79%
4,Cc1ccc(-n2nc3c(N4CCC(C(=O)NC5CCC(C)CC5)CC4)nnc(C)c3c2C)cc1 (centres undefined),inactive: 74%
5,Cc1ccc2sc(N(Cc3cccnc3)C(=O)Cc3ccccc3)nc2c1C,inactive: 63%
6,CC1=C(C(N)=O)C(c2cccc(O)c2)n2ncnc2N1 (centres undefined),inactive: 87%
7,COc1ccc(Cl)cc1NC(=O)Cn1c(=O)oc2cc(S(=O)(=O)N3CCCCCC3)ccc21,inactive: 88%
8,O=C(c1cccs1)c1cn(CCOc2ccc(Cl)cc2)c2ccccc12,inactive: 80%
9,Cc1ccc(C(=O)c2cn(Cc3ccccc3F)c3cc4c(cc3c2=O)OCCO4)cc1,inactive: 83%
10,CN(C)CCNC(=O)c1ccc(Cn2c(SCc3ccc(F)cc3)nc3cccnc32)cc1,inactive: 129%
11,Cc1cc2c(n1-c1ccc(C(=O)NCCc3ccc(Cl)cc3)cc1)CCC(C)C2 (centres undefined),inactive: 70%
12,Cc1nc2nc(C(F)(F)F)[nH]c2cc1Br,inactive: 16%
13,COc1ccc(-c2cc(C(F)(F)F)n3nc(C(=O)OC(C)C)cc3n2)cc1,inactive: 70%
14,CCc1ccc2oc(C(=O)Nc3nc(-c4ccc(F)cc4)ns3)c(C)c2c1,inactive: 77%
15,CCOC(=O)c1cccc(NC(=O)CC2C(=O)N(c3ccccc3)C(=O)N2Cc2ccco2)c1 (centres undefined),inactive: 45%
16,Cc1c(C2=CCN(S(=O)(=O)c3ccc(Cl)cc3)CC2)c2ccccc2n1CC(=O)N1CCCC1,inactive: 75%
17,O=C(CC1(O)C(=O)N(CCc2ccccc2)c2ccc(Br)cc21)c1ccccc1 (centres undefined),inactive: 15%
18,O=C(OCn1nnc2ccccc2c1=O)C1CCCCC1,inactive: 118%
19,CCOc1ccccc1CNC(=O)C1CCN(c2nnc(C)c3c(C)n(-c4ccc(C)cc4)nc23)CC1,inactive: 86%
20,O=C(CN1C(=O)S/C(=C\c2ccco2)C1=O)CN1C(=O)S/C(=C\c2ccco2)C1=O,inactive: 113%
21,CC(=O)Nc1ccc(Nc2nc3ccc(Cl)cc3n3cnnc23)cc1,inactive: 81%
22,CNC(=O)c1ccc(-c2nc(CN3CCc4ccccc43)c(C)o2)cc1,inactive: 74%

row,Compound,survival
1,Cc1cccc(OCC(=O)Nc2ccc(OCc3cc(=O)n4cc(C)ccc4n3)cc2)c1,inactive: 88%
2,Cc1c(Cl)cccc1NC(=O)C(C)n1nc(C)c2c(C)n(-c3ccccc3)nc2c1=O (centres undefined),inactive: 81%
3,CCC1CCCCN1C(=O)CSc1n[nH]c(-c2ccccc2)n1 (centres undefined),inactive: 100%
4,CCCn1c(SCC(=O)N2CCCC2)nnc1C(C)C,inactive: 105%
5,COc1ccc(N(Cc2nnc3n2CCCCC3)C(=O)Nc2ccc(Cl)cc2)cc1Cl,inactive: 80%
6,Cc1cccc(NC(=O)CSc2cn(CC(=O)N3CCC(C)CC3)c3ccccc23)c1C,inactive: 96%
7,Fc1ccccc1-n1ncc2c1ncn1nc(COc3ccc(Cl)cc3)nc21,inactive: 91%
8,COc1ccccc1CNC(=O)c1cc(S(=O)(=O)N2CCCCCC2)cn1C,inactive: 132%
9,O=C1CC(c2nnc(Cc3ccc(F)cc3)o2)CN1c1ccccc1 (centres undefined),inactive: 111%
10,Cc1cccc(N2CCN(S(=O)(=O)c3nnc(NC(=O)c4ccc(Cl)cc4)s3)CC2)c1,inactive: 84%
11,COc1ccc(OC)c(NC(=O)c2ccc3nc(C(C)C)oc3c2)c1,inactive: 60%
12,CC(=O)c1cccc(NC(=O)Cn2c(-c3cncs3)nc3ccccc32)c1,inactive: 53%
13,CN(C)CCOC(=O)c1ccco1,inactive: 104%
14,COc1ccccc1N1CCN(C(=O)c2cc3c(s2)-c2ccccc2OC3)CC1,inactive: 91%
15,CCc1cccc(NC(=O)c2cc(S(=O)(=O)N3CCCCCC3)cn2C)c1,inactive: 65%
16,Cc1ccccc1CN1CCC(CNC(=O)c2cc3ccc4cccnc4c3[nH]2)CC1,inactive: 79%
17,COc1ccccc1NC(=O)c1sc2nc(C)c(C(=O)Nc3ccc(Cl)cc3)c(-c3ccc(Br)cc3)c2c1N,inactive: 98%
18,CC(C)(C)C(=O)NC1CC(=O)N(c2ccc3c(c2)OCCO3)C1 (centres undefined),inactive: 140%
19,Cc1noc(Cn2c(=O)c3cc4c(cc3n(CC(=O)Nc3ccc(C(C)C)cc3)c2=O)OCO4)n1,inactive: 76%
20,CC(C)NC(=O)Cc1csc2nc(-c3ccccc3)cn12,inactive: 125%
21,CCc1ccccc1N1CC(c2nc3ccccc3n2CCCCOc2ccccc2OC)CC1=O (centres undefined),inactive: 93%
22,O=C1CCc2cc(S(=O)(=O)NC(C(=O)Nc3ccc(F)cc3)c3ccccc3)ccc2N1 (centres undefined),inactive: 78%
